# The RNAGym collection of RNA variant scans (doi:10.1073/pnas.2313332121)
# This sample is rich in variants without activity.
# B1: TPR 5TU (parent)
# chain: GGAUCUUCUCGAUCUAACAAAAAAGACAAAUCUGCCACAAAGCUUGAGAGCAUCUUCGGAUGCAGAGGCGGCAGCCUUCGGUGGCGCGAUAGCGCCAACGUUCUCAACUAUGACACGCAAAACGCGUGCUCCGUUGAAUGGAGUUUAUCAUG
# Variants of: B1
# Experiment: polymerase ribozyme fitness, log enrichment relative to wild type (log ratio); higher = more active; in vitro selection for triplet polymerase activity
# Procedure, shortened: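 Mutant libraries were PCR-built and transcribed for each subunit of a heterodimeric triplet polymerase ribozyme and selected for one round in triplicate at −7 °C, frozen, before gel excision of extended constructs and streptavidin-bead capture. Input and output libraries were Illumina-sequenced, keeping genotypes with ≥10 input reads and ≥1 read per output. Fitness is a logarithmic ratio of genotype to wild-type enrichment, in base 2, using inverse-variance-weighted replicate averages.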
row,Variant,polymerase ribozyme fitness (log ratio)
1,C27A C38G U82A G92U C114G,≤ -4.2
2,C27A C38U A52C U53G C72A U77C C79G G84A G124A U146C,≤ -4.2
3,C27A C43A A52U U55A U56A G92U,≤ -4.2
4,C27A C51A U53A U55G C79A G84U C108A C131G,≤ -4.2
5,C27A C54G C105U,≤ -4.2
6,C27A C57A A66G G86U U90G A121G U151C,≤ -4.2
7,C27A C57U C75A C116A,≤ -4.2
8,C27A C75U C93G A115U,≤ -4.2
9,C27A C87U U148A,≤ -4.2
10,C27A C95U C125G,≤ -4.2
11,C27A G46A U53A U56G A91C A106C A110G A138G,≤ -4.2
12,C27A G48U C54U G83C C118U A120U A121U,≤ -4.2
13,C27A G50C G80A C95U,≤ -4.2
14,C27A G59C C87G A107U C114U A115G G124U G141U,≤ -4.2
15,C27A G65A G71C C93U A106G G140C,≤ -4.2
16,C27A G83C,≤ -4.2
17,C27A U44A C63U U77A C85U G86U U144C,≤ -4.2
18,C27A U45G G46A A60U C95G G124U,≤ -4.2
19,C27A U55G A66U C72U U78G C79U A91C C105U,≤ -4.2
20,C27A U82C U148G A150C,≤ -4.2
21,C27G A28G C69G C93G C95U,≤ -4.2
22,C27G A29G G46A G50A C85U C103A A137G G141U,≤ -4.2
23,C27G A29U A37G U55A A137U,≤ -4.2
24,C27G A29U A40C A98G C116G,≤ -4.2

row,Variant,polymerase ribozyme fitness (log ratio)
1,C27G A30U A49C U55A C57G C63U,≤ -4.2
2,C27G A30U C93G A98G,≤ -4.2
3,C27G A39C C63A C85A U109G,≤ -4.2
4,C27G A39G C51G A89G G128C,≤ -4.2
5,C27G A40U G50C A73U G88U A91C C96G C123A,≤ -4.2
6,C27G A40U G58A A73C C76U C95G,≤ -4.2
7,C27G A41C A106U,≤ -4.2
8,C27G A49G U55A C57G C93A G112A G141U A147C,≤ -4.2
9,C27G A49U C85U,≤ -4.2
10,C27G A52G C87A,≤ -4.2
11,C27G A110U,≤ -4.2
12,C27G C32G A49C A60C C125G,≤ -4.2
13,C27G C35U G50U C85G,≤ -4.2
14,C27G C38A C54U G92U U134G,≤ -4.2
15,C27G C43U A60C,≤ -4.2
16,C27G C51A A52C C87G C96U C108A,≤ -4.2
17,C27G C54A C93A A115U,≤ -4.2
18,C27G C72U U134A U135G,≤ -4.2
19,C27G C85A A137C,≤ -4.2
20,C27G C85G C93U,≤ -4.2
21,C27G C85U A115C G143C,≤ -4.2
22,C27G C95G C96G,≤ -4.2
23,C27G C125A,-3.93
24,C27G G50A C99U,≤ -4.2

row,Variant,polymerase ribozyme fitness (log ratio)
1,C27G G65A C76G G86A G88C,≤ -4.2
2,C27G G71A A138C A142C,≤ -4.2
3,C27G G71C G80U C85G,≤ -4.2
4,C27G G80A C114A C116U A142C,≤ -4.2
5,C27G U31A A37G C85U G141C,≤ -4.2
6,C27G U44G A60G G83U U101G U104A A106G,≤ -4.2
7,C27G U53G U56A C76G G83A,≤ -4.2
8,C27G U55G G88A G94U U109A C114U C123A U134C,≤ -4.2
9,C27G U56A,-3.69
10,C27U A28G,≤ -4.2
11,C27U A28G A64U G84U G141C G143C,≤ -4.2
12,C27U A28U C36A C96G U135G,≤ -4.2
13,C27U A29U C95G U134C,≤ -4.2
14,C27U A37C A60G G86A U104C C118A C132U U144C C149G,≤ -4.2
15,C27U A37U U56A C75G G83C,≤ -4.2
16,C27U A39G C54U U55A G74U C85U C149G,≤ -4.2
17,C27U A40C G59C G92C A98G C108U C132A U151G,≤ -4.2
18,C27U A40U G42C U77C G81A G83C,≤ -4.2
19,C27U A40U G58C G59U G92U,-2.23
20,C27U A40U G84A A113C A122G U145A,≤ -4.2
21,C27U A41C A52C C54G C95G U102A,≤ -4.2
22,C27U A41U G80C C96U G136U A138U G143U,≤ -4.2
23,C27U A47C U56G C76U U78A G94A A97U C118U,≤ -4.2
24,C27U A47G A52C G83A U146G,-3.62

row,Variant,polymerase ribozyme fitness (log ratio)
1,C27U A47U C87G U146A C149A,≤ -4.2
2,C27U A49C A98G C99A C125U U148C,≤ -4.2
3,C27U A60U A73G G92A C96G A115G U144G,≤ -4.2
4,C27U A66U C95A,≤ -4.2
5,C27U A91G C99G A147C,≤ -4.2
6,C27U A138G U145C,≤ -4.2
7,C27U C35A G92C A98U G117A,≤ -4.2
8,C27U C38G C87A U102A C103G,≤ -4.2
9,C27U C38U A52U C85G G88U U102G,≤ -4.2
10,C27U C43A C75U C96U C105A,≤ -4.2
11,C27U C43U C95U A119U G143C U144C,-4.15
12,C27U C51A C54U C87U C95A G126U G133C,≤ -4.2
13,C27U C54G G86A A119U,≤ -4.2
14,C27U C57A A64U C87U U90C,≤ -4.2
15,C27U C57A G68C C75U A91G U130G,≤ -4.2
16,C27U C63G C75A U127G A137U,≤ -4.2
17,C27U C63G C95U C96U C99G,-3.33
18,C27U C75G C85A C105G U130G U146G,≤ -4.2
19,C27U C79U C87G U90C C96U A121U A150G,≤ -4.2
20,C27U C79U C87G U90C C96U A121U U134G,≤ -4.2
21,C27U C85A C93G G126A,≤ -4.2
22,C27U C85G G140C,≤ -4.2
23,C27U C85U A107G G124C,≤ -4.2
24,C27U C87G C108U,≤ -4.2

row,Variant,polymerase ribozyme fitness (log ratio)
1,C27U C93U A138C,≤ -4.2
2,C27U G42U G59C G84A,≤ -4.2
3,C27U G46A C75A A91U G94A,≤ -4.2
4,C27U G50A C51A A64U C79U A89G G141A,≤ -4.2
5,C27U G50C G141A,-4.12
6,C27U G58A A60G G84U,-1.42
7,C27U G58A A64G A73G C87G A120G,≤ -4.2
8,C27U G58A C96U C116U C118G U144G,-0.836
9,C27U G59A G67C G86C C99U,≤ -4.2
10,C27U G62U A120C A122U,-2.46
11,C27U G67A G86A G136A U145C,≤ -4.2
12,C27U G67C C75U C87A C99G U146C,≤ -4.2
13,C27U G70A C87A,≤ -4.2
14,C27U G83A C95U U102A G126C,-3.56
15,C27U G88U C93G C95G,≤ -4.2
16,C27U U31A A60U A66C C85U C87G G141U,≤ -4.2
17,C27U U31C C63U G86U U102G U109A A120G U145G,≤ -4.2
18,C27U U33A G92C,-3.92
19,C27U U33G A66U A91C C93U A106G A150U,≤ -4.2
20,C27U U61G A64U C96U,≤ -4.2
21,A28C A30U C57U G58A G59A G68U C69U,≤ -4.2
22,A28C A37G C69G G133U U135G G141U,≤ -4.2
23,A28C A37U C75G,≤ -4.2
24,A28C A39C U55A U56A C96G C105U U111A,≤ -4.2

row,Variant,polymerase ribozyme fitness (log ratio)
1,A28C A40C C54U C87A C93G A115U A150G,≤ -4.2
2,A28C A40G A106G,≤ -4.2
3,A28C A40U G48A G58U,≤ -4.2
4,A28C A47G G48A C63U G83A C118U,≤ -4.2
5,A28C A47U C85G C93A C95U G100U,≤ -4.2
6,A28C A49C G50A A106G A115G A142C,≤ -4.2
7,A28C A52G U82C C93U C95U U134A U146G,≤ -4.2
8,A28C A60G C69U G74A U135G A138U G141U,≤ -4.2
9,A28C A60G C75G A119C A120C G140U,≤ -4.2
10,A28C A73C U78G G86C C114A A120U G136U,≤ -4.2
11,A28C A73G A110U G124U,≤ -4.2
12,A28C A98G,≤ -4.2
13,A28C C32U G50C G58A C95U G117A,≤ -4.2
14,A28C C36U U55A C57U C63G C95A C116A U151A,≤ -4.2
15,A28C C51A U56C C69G C79G U145C,≤ -4.2
16,A28C C51U U55A C57U U78G G83A U144G,≤ -4.2
17,A28C C57A G80C A89U A91U C96G U127A C131G U148G,≤ -4.2
18,A28C C69G G92U A107G U145C C149A,≤ -4.2
19,A28C C85A A121C G143C,≤ -4.2
20,A28C C85G A106C A113C,≤ -4.2
21,A28C C87G G117C A137U,≤ -4.2
22,A28C C87G U139G,≤ -4.2
23,A28C G34U C93G U148G,≤ -4.2
24,A28C G42A G58C C93A A120G,≤ -4.2

row,Variant,polymerase ribozyme fitness (log ratio)
1,A28C G42C C72U C87A C118U C123U C129G U135G,≤ -4.2
2,A28C G46A C93U U148C,≤ -4.2
3,A28C G48C U56A U82G G86A G124A G152U,≤ -4.2
4,A28C G50A C69G U78C G88U A122G,≤ -4.2
5,A28C G50C C99U A107U A142U A150G,≤ -4.2
6,A28C G80C U82G G88C U130C,≤ -4.2
7,A28C G83A,≤ -4.2
8,A28C G83C G128U,≤ -4.2
9,A28C G84A G94U C96G C108G U139C G143C,≤ -4.2
10,A28C U31C U144G A147U,≤ -4.2
11,A28C U33C A40G U55A G59A A60C C75G G80A C103G C116G G141C A150G,≤ -4.2
12,A28C U44A G59A C125A G143C,≤ -4.2
13,A28C U53A A89U,≤ -4.2
14,A28C U53A G92A,≤ -4.2
15,A28C U53A U55A U78A,≤ -4.2
16,A28C U55G U78C U82G G86U,≤ -4.2
17,A28C U77A C87G U144A,≤ -4.2
18,A28C U78G C96G U148G,≤ -4.2
19,A28C U82A,≤ -4.2
20,A28C U82G C85U G117U,≤ -4.2
21,A28C U134C,≤ -4.2
22,A28C U151A,≤ -4.2
23,A28G A29U A49U G67C C85U U90G C96G,≤ -4.2
